Results published in PubChem BioAssay AID488969 (Vanderbilt High Throughput Screening Facility, 2010).
The full ranking holds about 110,000 compounds; the median of “z-score” is about -0.1, and the highest 2% start at about 2. The list shows a part of the results. Activity calls are given as the source filed them.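 Rule for the calls: active = z-score in the third read window above 3 or below -3; inactive = the rest.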

What follows are compounds tested against Metabotropic glutamate receptor 8 (Rattus norvegicus) (UniProt P70579) (assay: rat mGluR8 modulators via GIRK flux, primary screen, cell-based, thallium flux, HTS (AID 488969)). Settings: HEK293 rat mGluR8, GIRK (G protein-gated inwardly rectifying potassium channel) thallium flux, FluoZin2; at 10 µM; stronger effect = higher value; submaximal glutamate (EC20) added with thallium.
Sequence of UniProt P70579 (P70579 whole entry, looked up): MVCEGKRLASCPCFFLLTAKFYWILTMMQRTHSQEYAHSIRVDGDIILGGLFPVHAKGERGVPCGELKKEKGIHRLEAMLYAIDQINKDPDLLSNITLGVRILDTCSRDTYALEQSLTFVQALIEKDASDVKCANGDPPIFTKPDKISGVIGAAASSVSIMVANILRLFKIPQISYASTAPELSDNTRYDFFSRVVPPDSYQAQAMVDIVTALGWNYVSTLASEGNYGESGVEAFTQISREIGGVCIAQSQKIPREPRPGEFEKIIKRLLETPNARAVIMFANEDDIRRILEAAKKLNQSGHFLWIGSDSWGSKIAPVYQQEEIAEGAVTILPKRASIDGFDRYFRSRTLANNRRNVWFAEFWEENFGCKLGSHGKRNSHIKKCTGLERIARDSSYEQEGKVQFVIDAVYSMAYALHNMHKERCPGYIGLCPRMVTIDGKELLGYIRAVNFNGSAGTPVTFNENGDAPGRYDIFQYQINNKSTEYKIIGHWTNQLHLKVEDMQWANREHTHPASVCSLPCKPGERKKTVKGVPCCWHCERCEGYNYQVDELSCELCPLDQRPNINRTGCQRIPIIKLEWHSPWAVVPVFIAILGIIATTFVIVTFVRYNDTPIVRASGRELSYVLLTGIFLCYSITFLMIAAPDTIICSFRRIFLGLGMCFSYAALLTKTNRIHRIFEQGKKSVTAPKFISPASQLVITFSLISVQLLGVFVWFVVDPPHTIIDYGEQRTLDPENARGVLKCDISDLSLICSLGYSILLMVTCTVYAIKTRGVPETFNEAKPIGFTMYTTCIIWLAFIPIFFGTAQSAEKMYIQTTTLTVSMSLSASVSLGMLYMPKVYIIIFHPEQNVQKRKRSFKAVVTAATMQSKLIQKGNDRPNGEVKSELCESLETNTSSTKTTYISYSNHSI
`Cc1cc(NC(=O)c2cccnc2)ccc1NC(=O)c1ccco1` was tested, and the z-score was -0.766.
`O=C(O)CSc1ncn[nH]1` gave a z-score of 1.25.
`CCCSc1nnc(N2C(=O)CC(c3ccsc3)C3=C2CCCC3=O)s1` (stereo unspecified) showed a z-score of -0.694.
Work on `CN1C(=O)CC(C(=O)O)SC1=Nc1ccc(F)cc1` (stereo unspecified) yielded a z-score of -0.345.
With `Cc1ccccc1-c1nnc(SCc2ccccc2)o1` the z-score was 0.436.
Compound `COC(=O)c1ccc2c(=O)[nH]c(CN3c4ccccc4CC3C)nc2c1` (stereo unspecified) has a z-score of 0.373.
`COc1ccc(-c2nc3ccc(N4CCCC4)cc3c(=O)[nH]2)cc1OC` showed a z-score of -0.908.
`C/C(=N/NC(=O)c1ccc(Br)o1)c1cccc(NC(=O)c2ccc(C)o2)c1` was tested, and the z-score was 0.0553.
`Cc1cccc(NC(=S)NNC(=O)c2sccc2C)c1` gave a z-score of 2.13.
Compound `COc1ccccc1NC(=O)C(C/C=C(\C)Cl)C(C)=O` (stereo unspecified) has a z-score of -0.044.
Work on `CCN1c2ccccc2-c2nc3ccccc3n2C1c1cccs1` (stereo unspecified) yielded a z-score of -0.919.
For `CCOC(=O)CSc1nc2c(c(=O)[nH]c(=O)n2C)n1CCc1ccccc1`, the z-score was -0.422.
Compound `CCOC(=O)c1cc(NC(=O)CSCCO)ccc1Cl` has a z-score of -0.351.
`COc1cc2ccccc2cc1C(=O)Nc1ccc(Cc2ccncc2)cc1` was tested, and the z-score was -0.647.
Work on `C=CCN1C(=O)CC(C(=O)NC)SC1=Nc1ccc(C(=O)OCC)cc1` (stereo unspecified) yielded a z-score of 0.273.
In the case of `CC(C)c1ccc(NC(=O)COc2nnc(-c3cccs3)c(-c3cccs3)n2)cc1`, the z-score is reported as -0.3.
`CSC1=N/C(=C\c2ccc3c(c2)OCO3)C(=O)S1` showed a z-score of -0.122.
For `COc1ccc(CN(C(=O)CSc2nnc(-c3ccc(OC)c(OC)c3)o2)c2ccc(F)cc2)cc1`, the z-score was -0.931.
Work on `COc1ccc(C2SCC(=O)N2c2c(C)n(C)n(-c3ccccc3)c2=O)cc1OC` (stereo unspecified) yielded a z-score of 0.108.
Compound `COc1ccc(-c2noc(-c3ccccc3C(=O)NCc3ccco3)n2)cc1` has a z-score of -0.286.
In the case of `CCOC(=O)CC1C(=O)NCCN1C(=O)c1ccc(F)cc1F` (stereo unspecified), the z-score is reported as 0.61.
`COc1ccc(CC(NC(C)=O)C(=O)N2CCN(C(=O)N(C(C)C)C(C)C)CC2)cc1` (stereo unspecified) showed a z-score of 0.637.
In the case of `CCn1cc([N+](=O)[O-])c(C(=O)Nc2ccc3c(c2)OCCO3)n1`, the z-score is reported as 0.358.
`CC(C)COC(=O)Nc1ccccc1C(=O)N1CCOCC1` gave a z-score of 0.0445.
`Cc1nn(-c2ccccc2)c(C)c1NC(=O)c1ccc(S(=O)(=O)N2CCCC2)cc1` gave a z-score of -0.17.
For `CN(C)c1ccc(N2CN=C3SCC(=O)N3C2)cc1`, the z-score was 0.00946.
`CCCN1C(=O)c2ccc(C(=O)NC3=NCCS3)cc2C1=O` was tested, and the z-score was -0.106.
Compound `O=C(COCCOCC(=O)N(c1ccccn1)C1CCCCC1)N(c1ccccn1)C1CCCCC1` has a z-score of -0.162.
`COc1ccc(-c2nc3ccccc3c(=O)n2CCOc2cccc(C)c2C)cc1` gave a z-score of 0.0536.
Work on `CSc1nc(-c2ccco2)nn1C(=O)c1cccs1` yielded a z-score of -0.365.
In the case of `COC(=O)C1C(=O)NC(SC)=C(C#N)C1c1ccccc1F` (stereo unspecified), the z-score is reported as -0.0603.
For `CCCCN(C)C(=O)CS(=O)(=O)Cc1nc(-c2cccc(OC)c2)oc1C`, the z-score was 0.122.
`Oc1ccc(N2CCN(C(c3cccnc3)c3nnnn3Cc3ccccc3)CC2)cc1` (stereo unspecified) showed a z-score of -0.968.
`Cc1ccc(OC(=O)c2ccc3snnc3c2)cc1` was tested, and the z-score was 0.0223.
Work on `O=C(NCc1ccc2c(c1)OCO2)c1cc2ccccc2o1` yielded a z-score of -0.522.
`Cc1ccccc1NC(=O)Cn1nnc2c(cnn2-c2ccc(F)cc2)c1=O` was tested, and the z-score was -0.00842.
`COc1nc(N/N=C/c2ccc(C)cc2)nc(N2CCCCC2)n1` gave a z-score of -0.166.
`COC(=O)c1ccccc1NC(=O)NC1CCN(Cc2ccccc2)CC1` gave a z-score of 1.06.
For `COc1ccc(/C=C(/NC(=O)c2cccs2)C(=O)N2CCOCC2)cc1OC`, the z-score was -0.39.
With `CCOC(=O)CC1C(=O)NCCN1Cc1cccc(OC)c1` (stereo unspecified) the z-score was -0.139.
Work on `CCc1ccc(Nc2ncccc2C#N)cc1` yielded a z-score of -0.0868.
`Cc1ccc(/C=N/Nc2cccc(C(=O)O)c2)s1` showed a z-score of -1.63.
Compound `C/C(=C1/SC(N2CC(C)OC(C)C2)=NC1=O)c1ccccc1` (stereo unspecified) has a z-score of -0.986.
In the case of `COc1cccc(/C=N/NC(=O)Cn2nc(C)c([N+](=O)[O-])c2C)c1O`, the z-score is reported as -0.0586.
`COc1ccc(NC(=O)c2ccc3c(c2)OCO3)cc1Cl` showed a z-score of 0.138.
`CN1CCN(C(CNS(=O)(=O)c2ccc(F)cc2)c2cccnc2)CC1` (stereo unspecified) gave a z-score of 0.631.
For `COc1cc2c(cc1NC(=O)CSc1nc3ccccc3[nH]1)oc1ccccc12`, the z-score was -0.238.
`COC(=O)Cn1cc(/C=N/NC(=O)COc2cccc3cccnc23)c2ccccc21` gave a z-score of -0.566.
Work on `O=C(CC(Nc1ccc(Cl)cc1)C(=O)O)c1ccccc1` (stereo unspecified) yielded a z-score of -0.683.
`COC(=O)c1ccccc1NC(=O)CN(CCc1ccccc1)S(C)(=O)=O` showed a z-score of 0.444.
`COCCCNC(=O)c1cc(C(=O)c2c(-c3c(Cl)cccc3Cl)noc2C)c[nH]1` gave a z-score of 0.0561.
Compound `O=C1C2CCCN2C(c2ccccc2)N1c1cccc(Cl)c1` (stereo unspecified) has a z-score of -0.472.
`O=C(NN1C(=O)C2C3C=CC(C4CC34)C2C1=O)c1ccc(Cl)cc1` (stereo unspecified) showed a z-score of -0.221.
Work on `CCOc1cc(NS(=O)(=O)c2ccc(OC)cc2)c(OCC)cc1NC(=O)c1ccco1` yielded a z-score of -0.0318.
For `CC1=CC(C)(C)N2C(=O)C3(C(C#N)=C(N)Oc4cc(C)oc(=O)c43)c3cccc1c32` (stereo unspecified), the z-score was -0.19.
In the case of `CCOC(=O)c1ccc(NC(=O)CCc2c(C)nc3ncnn3c2C)cc1`, the z-score is reported as -1.01.
Work on `CCOC(=O)C1=C(C)NC2=C(C(=O)CC(C)(C)C2)C1c1ccc(N(C)C)cc1` (stereo unspecified) yielded a z-score of 1.07.
With `CN(C(=O)Nc1ccc(S(=O)(=O)N(C)C)cc1)C1CCCCC1` the z-score was -0.0267.
`CC(=O)N1CCN(CC(=O)c2ccc(Br)cc2)CC1` gave a z-score of -0.0782.
Compound `COc1ccc(OC)c(NC(=O)CN(c2ccc(C(C)C)cc2)S(=O)(=O)c2c(C)noc2C)c1` has a z-score of -0.204.
Compound `COc1ccc(NC(=O)CSc2nnc(-c3cccs3)n2-c2ccccc2)cc1` has a z-score of -0.000773.
Work on `CCCCNC(c1ccccc1)c1ccncc1` (stereo unspecified) yielded a z-score of -0.241.
For `CCOC(=O)C1C(=O)CC(C)(O)C(C(=O)OCC)C1c1ccccc1OC` (stereo unspecified), the z-score was 0.134.
`COc1ccc(C(=O)NC2(C(F)(F)F)C(=O)Nc3c2c(=O)[nH]c(=O)n3CCc2ccc(OC)c(OC)c2)cc1` (stereo unspecified) showed a z-score of 0.0668.
With `Cc1ccc(N2C(=O)/C(=C/c3ccco3)SC2=S)cc1` the z-score was -0.0828.
In the case of `CCCNC(=O)Cc1ccsc1`, the z-score is reported as 0.11.
`Cc1[nH]c(=O)[nH]c(=O)c1/C=N/NC(=O)[C@@H](NC(=O)OC(C)(C)C)C(C)C` was tested, and the z-score was 0.235.
`CCCCS(=O)CC(O)COCC` (stereo unspecified) was tested, and the z-score was 0.372.
Work on `O=[N+]([O-])c1ccc(Nc2nc(N/N=C\c3ccc4c(c3)OCO4)nc(N3CCCCC3)n2)cc1` yielded a z-score of -0.0977.
`O=C(Cc1ccccc1)NC(Nc1cccc2ccccc12)C(Cl)(Cl)Cl` (stereo unspecified) gave a z-score of 0.0891.
`CCOc1ccc(/C=N/NC(=O)CC(=O)Nc2ccc(Cl)c(Cl)c2)cc1` gave a z-score of -0.265.
`CC(C)N1C(=O)c2ccccc2C1C(=O)NC1CCCCCC1` (stereo unspecified) was tested, and the z-score was 0.000285.
`COc1cccc(-n2c(COc3ccccc3C)nnc2SCC(=O)O)c1` gave a z-score of -0.14.
`CCOC(=O)CN1N=C(/C=C/c2ccccc2)CCC1=O` gave a z-score of -0.0458.
`CCOc1ccc(-n2nc3ccc(NC(=O)c4ccc5c(c4)OCCO5)cc3n2)cc1` showed a z-score of -0.0865.
`C=CCNC(=O)CC(=O)N/N=C/c1cccc(Br)c1` was tested, and the z-score was 0.0243.
Work on `Cc1ccc(NC(=O)c2ccc(OC(F)F)cc2)cc1S(=O)(=O)N(C)C` yielded a z-score of -0.526.
For `CCC1(C)OCC(Cn2c3ccccc3c3ccccc32)O1` (stereo unspecified), the z-score was active: 3.89.
For `COc1ccccc1C(=O)NNC(=O)c1ccccc1[N+](=O)[O-]`, the z-score was -0.346.
`Cc1ccc(S(=O)(=O)CCC(=O)OCC(=O)c2c(C)[nH]c3ccccc23)cc1` gave a z-score of -0.175.
Compound `COC(=O)c1c(NC(=O)CSc2nc3nc(C)cc(C)n3n2)sc(C)c1C` has a z-score of -0.986.
Compound `CC1=C(C(=O)OCC2CCCO2)C(c2ccccc2)NC(=O)N1` (stereo unspecified) has a z-score of -0.168.
`CCC(C)c1ccc(NC(=O)c2cccnc2)cc1` (stereo unspecified) gave a z-score of 0.264.
With `OCc1nn2c(c1Br)NC(c1ccccc1)CC2C(F)(F)F` (stereo unspecified) the z-score was -0.296.
With `Cc1cc(Br)ccc1OCC(=O)N1CCCCCC1` the z-score was -0.274.
For `C/C(=N\NC(=O)COc1ccc(C#N)cc1)c1ccc(N2CCOCC2)cc1`, the z-score was 1.67.
Work on `c1ccc(-c2noc(-c3cccc4ccccc34)n2)cc1` yielded a z-score of -0.0289.
In the case of `COc1cccc(/C=C2\SC(=O)N(CCC(=O)NNC(=O)c3ccccc3Cl)C2=O)c1`, the z-score is reported as -0.0918.
`CC(=O)c1c(C)[nH]c(C(=O)NCCN2CCC(C)CC2)c1C` gave a z-score of 0.191.
Compound `OC(COc1ccc2cc(Br)ccc2c1)CN1CCCC1` (stereo unspecified) has a z-score of -0.288.
Compound `Nc1ccc(-c2nc3ccc(-c4nc5ccccc5o4)cc3[nH]2)cc1` has a z-score of 0.302.
For `Cc1ccccc1NS(=O)(=O)c1cc(C(N)=O)ccc1C`, the z-score was -0.42.
In the case of `CC(=O)N1N=C(c2ccc(C)cc2)OC1c1ccc(C(C)C)cc1` (stereo unspecified), the z-score is reported as -0.402.
In the case of `CCNC(=S)NNC(=O)CCn1c2ccccc2c2ccccc21`, the z-score is reported as 1.79.
Compound `Cc1cccc2c1NC(=O)C2(c1ccc(O)cc1)c1ccc(O)cc1` has a z-score of -0.224.
Compound `Cc1ccc(NC(=O)CCn2cccc2)cc1F` has a z-score of -0.0137.
In the case of `Cc1cc(N2C(=O)C(O)=C(C(=O)c3ccco3)C2c2ccc(O)cc2)no1` (stereo unspecified), the z-score is reported as -0.207.
With `COc1cccc(Nc2nc(-c3sc(N)nc3C)cs2)c1` the z-score was -0.626.
For `CC(C)C(=O)Nc1ccc(C(=O)NNC(=O)CCc2ccccc2)cc1`, the z-score was -0.00881.
In the case of `C=CCn1c(CNC(=O)c2cccs2)nnc1SCc1ccc(Cl)cc1Cl`, the z-score is reported as -0.28.
Compound `O=C(NC(=S)Nc1ccc(S(=O)(=O)N2CCCCC2)cc1)c1ccccc1` has a z-score of 0.0869.
`CCCCCC(=O)NC(Nc1ccc(S(N)(=O)=O)cc1)C(Cl)(Cl)Cl` (stereo unspecified) was tested, and the z-score was -0.213.
Work on `O=c1ccc(OCCOc2ccccc2)nn1-c1ccccc1` yielded a z-score of -0.448.
`CN(C)S(=O)(=O)c1cccc(-c2nn(-c3ccccc3)cc2/C=C(/C#N)C(=O)NCc2ccco2)c1` was tested, and the z-score was -0.361.
`CCOC(=O)c1c(N)sc(C(O)(C(F)(F)F)C(F)(F)F)c1-c1ccc(Cl)cc1` was tested, and the z-score was -0.00372.
`CCCOc1ccc(/C(O)=C2/C(=O)C(=O)N(CCCOC)C2c2ccncc2)cc1` (stereo unspecified) gave a z-score of 0.0869.
For `COc1nnc(-c2ccc(N3CCCCC3)c(N)c2)c2ccccc12`, the z-score was -0.0963.
`COC(=O)c1sccc1OC(C)C(C)=O` (stereo unspecified) showed a z-score of -0.0883.
`O=C(c1ccccc1NS(=O)(=O)c1cccs1)N1CCCC1` gave a z-score of 0.676.
For `O=C(N/N=C/c1cccs1)c1ccccn1`, the z-score was -0.181.
Work on `CCCc1ccc(-c2cc(C(=O)N/N=C/c3ccc([N+](=O)[O-])o3)c3ccccc3n2)cc1` yielded a z-score of -0.0182.
